From PubChem BioAssay AID463173 (ICCB-Longwood Screening Facility, Harvard Medical School, 2010) come the findings set out here.

Molecules are shown by their SMILES. Out of some 52,000 compounds screened, about 1,700 (3.3%) were called active. Cut-off read from the data, not from the text of the source: active = survival mostly below about 52% (no sharp cut-off); inactive = mostly above about 56%. Some of the results follow.

The test system of the test is Wild type. As to the kind of experiment: growth inhibition of S. aureus wild type versus tarO mutant, primary screen, teichoic acid synthesis inhibitors, RN4220, OD600 (AID 463173). As to conditions: S. aureus RN4220 wild type/DeltatarO growth, OD600, 18 h, active compounds read low, screened at 18.75 µg/mL (by protocol).
Turning to `NC(=O)CN1c2cccc3cccc(c23)S1(=O)=O`, the survival is inactive: 98%.

Turning to `CCc1ccc(N(CC)C(=O)Cn2nc(Cc3cccnc3)c3ccccc3c2=O)cc1`, the survival is inactive: 80%.

For `CCOC(=O)c1sc2ccccc2c1S(=O)(=O)Nc1ccc(C(C)=O)cc1`, the survival was inactive: 90%.

Turning to `Cc1cccc(Cn2c(=O)n(Cc3ccccc3)c(=O)c3c2c2cc(C)ccc2n3C)c1`, the survival was inactive: 80%.

Turning to `CC(=O)c1ccc(NS(=O)(=O)c2c(C)nc3scc(C)n3c2=O)cc1`, the survival is inactive: 79%.

`CCn1cc(C(=O)NCCc2ccc(OC)c(OC)c2)c(=O)c2cc(S(=O)(=O)N3CCCCCC3)ccc21`: the survival was inactive: 130%.

With `Cc1ccc2oc(-c3ccc(C)c(NC(=O)C(C)(C)Oc4ccc(Cl)cc4)c3)nc2c1`, the survival is inactive: 43%.

In the case of `COc1ccccc1NC(=O)c1oc2ccccc2c1NC(=O)COc1cccc(C)c1`, the survival is inactive: 85%.

Consider `COc1ccc(Cl)cc1NC(=O)N(C)CCc1c(C)nn(C)c1C`, for which the survival was inactive: 55%.

Regarding `Nc1c(C(=O)Nc2ccc(C(F)(F)F)cc2)sc2nc(-c3cccs3)ccc12`, the survival is inactive: 89%.

As to `COc1ccccc1-c1nnc(C2CCN(S(=O)(=O)c3ccc(CC(C)C)cc3)CC2)o1`, the survival is inactive: 51%.

With `COc1cccc(-c2nc(SCc3cccc(Br)c3)n3[nH]c(=O)cc3n2)c1`, the survival is inactive: 101%.

Turning to `O=C(CCc1ccccc1)NCc1ccc2c(c1)CCN2C(=O)c1ccccc1`, the survival was inactive: 64%.

As for `CC(=O)N1CCc2c(sc3c2c(=O)n(CCc2ccccc2)c(=O)n3CC(=O)Nc2ccccc2F)C1`, the survival was inactive: 78%.

In the case of `COc1ccccc1NC(=O)c1oc2ccccc2c1NC(=O)Cc1cccs1`, the survival is inactive: 71%.

Consider `Cn1cc(C(=O)O)c(=O)c2cc(S(=O)(=O)N3CCOCC3)ccc21`, for which the survival was inactive: 76%.

Turning to `COc1ccccc1N1CCN(c2ccc(=O)n(CC(=O)Nc3cc(F)ccc3C)n2)CC1`, the survival is inactive: 77%.

For `CCOC(=O)c1cc(=O)n2[nH]c(-c3ccc(C)cc3)cc2n1`, the survival was inactive: 107%.

Take `COc1cc2c(cc1OC)C(c1ccc(Cl)cc1)N(c1cccc(C#N)c1)C(=O)C2` (stereo not given): the survival was inactive: 82%.

`COc1ccc(-n2c(SCC(=O)c3ccc(Cl)cc3)nc3c([nH]c4ccccc43)c2=O)cc1`: the survival was inactive: 73%.

For `COc1cccc(NC(=O)Cn2c(=O)n(-c3ccccc3)c(=O)c3ccc(C(=O)NCc4ccc5c(c4)OCO5)cc32)c1`, the survival was inactive: 120%.

For `Cn1cc(S(=O)(=O)N2CCCCCC2)cc1C(=O)N1CCN(c2ccccc2F)CC1`, the survival is inactive: 68%.

`COc1ccc(CCNc2ncnc3onc(-c4ccc(Cl)cc4)c23)c(OC)c1`: the survival is inactive: 75%.

On to `CCc1ccc(NC(=O)CN2C(=O)C3CCCN3c3ccc(S(=O)(=O)N(CC)CC)cc32)cc1` (stereo not given), for which the survival is inactive: 129%.

For the compound `Cc1ccccc1Nc1sc(C(=O)c2ccccc2)c(N)c1S(C)(=O)=O`, the survival is inactive: 96%.

Regarding `Cc1c(CC(=O)N2CCCCC2)c(=O)oc2cc(O)ccc12`, the survival was inactive: 81%.

As to `Cc1ccc(N(CC(O)Cn2c3ccccc3c3ccccc32)S(=O)(=O)c2ccc(F)cc2)cc1` (stereo not given), the survival was inactive: 92%.

For `CCc1ccc(NC(=O)Cn2c(=O)n(CCCC(=O)NCc3ccccc3Cl)c(=O)c3ccccc32)cc1`, the survival was inactive: 136%.

For the compound `Cc1cc(NC(=O)CSc2nc(-c3cccc(F)c3)nc3c2c(=O)n(C)c(=O)n3C)no1`, the survival is inactive: 68%.

For `COc1ccc2c(Sc3ccc(C)cc3)c(C(=O)NCC(C)c3ccccc3)[nH]c2c1` (stereo not given), the survival was inactive: 95%.

As for `COc1cc(NS(=O)(=O)c2ccc3c(c2)CC(C)N3C(=O)C2CCC2)cc(OC)c1OC` (stereo not given), the survival was inactive: 94%.

As for `Cc1ccc(-c2nc3cc(NC(=O)Cc4ccc(Cl)cc4)ccc3o2)cc1`, the survival was inactive: 80%.

Turning to `CCCNC(=O)Cn1nc(-c2ccc(C)c(C)c2)c2cnc3ccc(OC)cc3c21`, the survival is inactive: 88%.

With `COc1ccc(N(CC(=O)N2CCN(c3ccccc3F)CC2)S(=O)(=O)c2c(C)noc2C)cc1`, the survival was inactive: 119%.

For the compound `COc1ccccc1-c1nc2c(c(SCc3cc(C)ccc3C)n1)Cc1c(CO)cnc(C)c1O2`, the survival was inactive: 76%.

For `Cc1ccc(CNC(=O)c2cc3c(=O)oc4ccc(C)cc4c3s2)cc1`, the survival is inactive: 88%.

As to `COc1ccc2oc(=O)c(C(=O)NCCc3c(C)[nH]c4ccc(C)cc34)cc2c1`, the survival is inactive: 61%.

As to `COc1ccccc1NC(=O)Cn1cnc2ccc(S(=O)(=O)N3CCC(C)CC3)cc2c1=O`, the survival was inactive: 81%.

Regarding `COc1ccc(CNC(=O)c2cc3sccc3n2Cc2ccc(F)cc2)cc1`, the survival is inactive: 95%.

Consider `COCCCN1C(=O)c2[nH]nc(-c3cc(C)ccc3O)c2C1c1ccc(F)cc1` (stereo not given), for which the survival was inactive: 92%.

As for `COc1ccc(NC(=O)Cn2c(=O)n(Cc3ccco3)c(=O)c3sc4ccccc4c32)c(OC)c1`, the survival was inactive: 82%.

Consider `Cc1ccc(NC(=O)C2CCCN(C(=O)c3cnn(-c4ccccc4)c3-n3cccc3)C2)cc1` (stereo not given), for which the survival is inactive: 80%.

Regarding `CC(C)c1ccc(-c2noc(C3CCCN(C(=O)c4ccccc4)C3)n2)cc1` (stereo not given), the survival was inactive: 117%.

`CCOC(=O)c1ccc(OC(=O)c2cn(-c3ccc(C)cc3)c(=O)c3ccccc23)cc1`: the survival was inactive: 80%.

For the compound `Cc1cc(OCC(=O)N(Cc2ccc(N(C)C)cc2)Cc2ccco2)cc(C)c1Cl`, the survival was inactive: 89%.

`Cc1nn(-c2ccccc2)c(-n2cccc2)c1C(=O)N1CCN(c2ccccc2)CC1`: the survival is inactive: 86%.

Consider `Cc1cccc(OCC(=O)Nc2ccc(S(=O)(=O)Nc3onc(C)c3C)cc2)c1C`, for which the survival is inactive: 71%.

Take `Cc1ccccc1NC(=O)C(Cc1ccccc1)N1Cc2ccccc2C1=O` (stereo not given): the survival was inactive: 76%.

As for `O=C(Nc1noc2ccccc12)c1cccc(Cl)c1Cl`, the survival is inactive: 89%.

As for `COc1ccc(CNCCC(c2ccc(C)cc2)c2ccco2)cc1` (stereo not given), the survival was inactive: 72%.

Consider `Cc1ccc2oc(=O)c3cc(C(=O)Nc4ccc(C)c(F)c4)sc3c2c1`, for which the survival is inactive: 85%.

Turning to `COc1ccc(Cn2nnnc2C(c2cccs2)N2CCOCC2)cc1` (stereo not given), the survival was inactive: 108%.

As to `CCc1nnc(NC(=O)CSc2nc3c([nH]c4ccccc43)c(=O)n2-c2ccc(F)cc2)s1`, the survival is inactive: 91%.

For `CC(O)C(=O)NS(=O)(=O)c1ccccc1` (stereo not given), the survival was inactive: 97%.

For `Cc1c(Cl)cccc1NC(=O)c1cc(S(=O)(=O)N2CCCCC2)cn1C`, the survival was inactive: 80%.
